This is an account of results in patent publication US20200231654A1 (Daiichi Sankyo, published 2020).

The test has as its target T1, pro-mMMP-9(cat)_His6_FLAG_Avi (mouse, UniProt P41245 20-450).
T1 construct: Secretion signal Met1-Ala19 left out; also called pro mouse MMP-9 enzyme active domain; pro mouse MMP-9; not shown: His tag (His6 by the construct's name)
Kind of test: immunoprecipitation on Protein G beads, Western blot. (In general: A western blot detects proteins with antibodies after separation by electrophoresis.)

T1 sequence (P41245 other isoform, or with tags, fused parts or gaps): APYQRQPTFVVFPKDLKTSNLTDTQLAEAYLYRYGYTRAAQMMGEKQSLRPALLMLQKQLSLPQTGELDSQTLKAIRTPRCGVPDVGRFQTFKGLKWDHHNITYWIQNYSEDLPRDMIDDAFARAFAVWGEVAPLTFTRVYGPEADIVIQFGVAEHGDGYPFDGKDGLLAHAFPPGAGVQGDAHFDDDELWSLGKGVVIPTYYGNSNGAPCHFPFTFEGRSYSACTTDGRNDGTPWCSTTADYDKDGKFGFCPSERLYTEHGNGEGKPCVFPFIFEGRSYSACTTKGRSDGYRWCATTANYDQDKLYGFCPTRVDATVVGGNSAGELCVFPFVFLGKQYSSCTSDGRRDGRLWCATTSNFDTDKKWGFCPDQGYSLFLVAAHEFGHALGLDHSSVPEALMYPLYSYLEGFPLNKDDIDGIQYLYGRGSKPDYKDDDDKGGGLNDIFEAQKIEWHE

B1: active MMP-9-binding peptide C-terminal conjugate M91005-Fc-01 (Fc fusion)
chain: GSGMKETAAAKFERQHMDSPDLGTDDDDKAMADIGSANSDPQFGLFSKYRTPNCRKRGGPSCQMSYNPVCGSDMSTYANECTLCMKIREGGHNIKIIRNGPCGASAAAGGGGS[… human IgG1 Fc …]
On to B1, for which the binding result was “no binding”.
